The whole screen tested about 44,000 compounds, of which about 340 (0.77%) were called active. Another 5% or so got no clear call; they are omitted. Calls come from the whole dose curve; as a rule, active = well fitted inhibition curve with a large enough effect; inconclusive = small, poorly fitted or top-dose-only effect; inactive = flat fitted curve, though single readings scatter. This is one part of the list.
assay: Acumen qHTS Assay for Inhibitors of the mTORC1 Signaling Pathway in MEF (Tsc2-/-, p53-/-) Cells: Sytravon; conditions: phospho-rpS6 immunofluorescence/PI, 24 h; series mostly up to 38.3 µM; activity change, negative = inhibition: at the top concentration; note: nearly all actives have a fitted effect of over 50% in size;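 for activity change, negative = inhibition: plate controls were DMSO for no effect and rapamycin for full effect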
Method in brief: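 Read-out: phospho-S6 Alexa-488 intensity over PI intensity per well, scored as % active cells using thresholds from rapamycin (7.5 nM) and DMSO controls. Tsc2-/-, p53-/- MEFs exposed to compound for 24 h; PI cell count recorded as viability.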
Potency is the fitted concentration of half-maximal effect.

Compound	activity change, negative = inhibition	Potency
Cc1ccc(CN2CCC(CNC(=O)Nc3ccccc3F)CC2)cc1	inactive: 0.717%	
COc1ccc(C)cc1Nc1nc2c(S(=O)(=O)c3cc(C)ccc3C)nnn2c2ccsc12	inactive: -1.07%	
COc1cc2c(cc1NC(=O)COc1cc(C)cc(C)c1)oc1ccccc12	inactive: 6.59%	
COCCNc1nc2c(S(=O)(=O)c3ccccc3)nnn2c2ccc(Cl)cc12	inactive: 0.348%	
O=C(COc1ccc(Cl)cc1)NCCc1csc(-c2ccc(C(F)(F)F)cc2)n1	inactive: -10.9%	
Cc1oc2c(cc(NS(=O)(=O)c3ccc(Br)cc3)c3ccccc32)c1C(=O)OCc1ccccc1	inactive: 5.09%	
CN(C)c1ccc(C(=O)Nc2sc(Nc3ccccc3)nc2C(N)=O)cc1		active: 4.65 µM
COc1ccc(Cn2c(CCC(=O)Nc3ccc(Br)c(C)c3)nc3cccnc32)cc1	inactive: -9.59%	
CCCCCn1c(=O)[nH]c2cc(C(=O)N3CCN(c4ccc(OC)cc4)CC3)ccc2c1=O	inactive: 0%	
O=C(Cn1nnc(-c2ccc(C(F)(F)F)cc2)n1)NCCc1ccccc1	inactive: 0.306%	
Cc1cc(C)cc(NS(=O)(=O)c2cc3[nH]c(=O)c(=O)[nH]c3cc2C)c1	inactive: -0.238%	
CC(=O)Nc1ccc(S(=O)(=O)N2CCC(N3CCN(Cc4ccc(C)cc4)C(=O)C3=O)CC2)cc1	inactive: 4.23%	
CC1Cc2cc(S(=O)(=O)CCC(=O)Nc3cccc(F)c3)ccc2N1C(=O)C1CC1 (stereo not drawn)	inactive: -3.12%	
COc1cc(OC)c(C(=O)NCc2nc(-c3ccccc3)no2)cc1OC	inactive: 3.35%	
O=C(Nc1cc(Cl)cc(Cl)c1)c1ccc(F)c(S(=O)(=O)N2CCCC2)c1	inactive: -4.17%	
CCCC(=O)Oc1c(Sc2ccc(C)cc2)c(C)nn1-c1ccccc1	inactive: -10.7%	
CCc1ccc(CN(Cc2ccco2)c2cnc(S(C)(=O)=O)nc2C(=O)Nc2ccc(C)c(Cl)c2)cc1	inactive: -5.27%	
CCOC(=O)C1CCC(CN(Cc2ccc(OC)cc2)S(=O)(=O)c2ccc(C)cc2)CC1 (stereo not drawn)	inactive: -8.2%	
Cc1ccc(NC(=O)CN(C)S(=O)(=O)c2cccc3cccnc23)c(C)c1	inactive: -1.39%	
O=C(Cn1ncn2c(cc3cc(F)ccc32)c1=O)NC1CCCCC1	inactive: 0.578%	
COC(=O)c1ccccc1NC(=O)c1cc2ccccn2n1	inactive: -1.53%	

Compound	activity change, negative = inhibition	Potency
Cc1nn2c(=O)cc(COC(=O)c3ccc(NC(=O)CCc4ccccc4)cc3)nc2s1	inactive: 27%	
CCc1noc(-c2ccc(N3CCC(C)CC3)c([N+](=O)[O-])c2)n1	inactive: -4.45%	
Cc1cccc(OCCn2c(SCC(N)=O)nc3ccccc32)c1	inactive: 12.9%	
COc1ccc(CCNC(=O)C(=O)NCC(c2ccco2)S(=O)(=O)c2cccs2)cc1 (stereo not drawn)	inactive: -5.86%	
CCC(Sc1nc2cc3c(cc2c(=O)n1CCCCCC(=O)NCc1ccc2c(c1)OCO2)OCO3)C(=O)NCCCOC (stereo not drawn)	inactive: -2.02%	
CC(C)C(=O)Nc1ccccc1C(=O)OCc1cc(=O)n2nc(C3CC3)sc2n1	inactive: 0%	
Cc1c(Cl)cccc1NC(=O)c1cc(-c2cccc(Cl)c2)on1	inactive: -23.3%	
O=C(Nc1cccc(Br)c1)Nc1nc2c(s1)CCCCCC2	inactive: 3.18%	
O=C(CN1C(=O)c2cccnc2Oc2ccc(Cl)cc21)NCCCN1CCCCC1	inactive: 1.47%	
Cc1cccc(-c2nc3cc(NC(=O)c4ccc(OCC(C)C)cc4)ccc3o2)c1	inactive: 11.1%	
CCOC(=O)N1CCC(NC(=O)c2cnn(-c3ccc(C)cc3)c2-n2cccc2)CC1	inactive: -2.32%	
Cc1ccn2c(c1)nc(=O)c1cc(S(=O)(=O)N3CCCCC3)ccc12	inactive: -0.48%	
COc1ccc(NC(=O)c2cnc(N3CCOCC3)c3ccccc23)cc1OC	inactive: 1.28%	
COc1cccc(CCNC(=O)c2ccc(Cn3c(SCc4ccccc4)nc4cccnc43)cc2)c1	inactive: -6.54%	
Cc1cccn2c(=O)c3cc(C(=O)NC(C)C)n(C)c3nc12	inactive: 2.95%	
O=C(Nc1ccc2nc(SCCOc3ccccc3)sc2c1)c1ccco1	inactive: -1.57%	
Cc1ccccc1NC(=O)C1CCN(C(=O)c2ccc(F)cc2)CC1	inactive: 4.25%	
COc1ccc(-c2nc3ccccc3n2Cc2ccc(C(C)C)cc2)cc1	inactive: -10.9%	
CCOc1ccc(NC(=O)Cn2cc(C(=O)c3ccc(F)cc3)c(=O)c3cc4c(cc32)OCO4)cc1	inactive: -0.252%	
COc1ccc(CCNS(=O)(=O)c2cc(-c3cc(C)no3)ccc2OC)cc1OC	inactive: 5.08%	
CCOc1ccc(OCc2ccc(C(=O)Nc3cc(OC)c(OC)c(OC)c3)o2)cc1	inactive: 1.67%	

Compound	activity change, negative = inhibition	Potency
CC(C)c1ccc(-c2noc(SCC(=O)N3CCN(c4ccc(F)cc4)CC3)n2)cc1	inactive: 2.94%	
Cc1ccc(C)c(NC(=O)N(C)CCc2c(C)nn(C)c2C)c1	inactive: 19.6%	
O=C(CCc1ccccc1)N(Cc1cccnc1)c1nc2c(F)cc(F)cc2s1	inactive: -1.15%	
Cc1ccc(C)c(Nc2nn3c(=O)c4ccc(C(=O)NCCC5=CCCCC5)cc4nc3s2)c1	inactive: -4.64%	
Cc1ccc(N2CC(C(=O)NCCS(=O)(=O)N3CCN(c4ccccc4)CC3)CC2=O)cc1C (stereo not drawn)	inactive: -1.72%	
CCOc1ccc(-c2nc(CNC(=O)NC3CCCCC3)c(C)o2)cc1	inactive: -2.98%	
CCNc1nc(N)nc(Oc2ccc(OCC(=O)OC)nn2)n1	inactive: 2.1%	
CCN(CC)CCNc1ncnc2c1cnn2-c1cc(Cl)ccc1C	inactive: 0.0344%	
Cc1ccc(C(=O)Nc2nc3nc(C)cc(=O)n3[nH]2)cc1	inactive: -2.22%	
CCCN(C(=O)C(=O)Nc1ccc2nc3n(c(=O)c2c1)CCCCC3)c1ccc(OCC)cc1	inactive: 1.62%	
COc1cccc(CNC(=O)CSc2nc(=O)[nH]c3c2CCC3)c1	inactive: -4.74%	
CCOc1ccccc1C(=O)Nc1cccc2ccc(C)nc12	inactive: -10.4%	
O=C(NCCc1csc(-c2ccc(Cl)cc2)n1)c1ccco1	inactive: 2.08%	
COc1ccc(CCNc2nc3ccc(Cl)cc3n3cnnc23)cc1OC	inactive: 4.1%	
Cc1cccc2nc(-c3ccc(N(C)C)cc3)c(Nc3ccc4c(c3)OCO4)n12	inactive: -13.3%	
Cc1ccc(NC(=O)/C=C/c2ccc(Cl)cc2)c(Br)c1	inactive: 0.413%	
COc1cc(C2CC(=O)c3c([nH]c(C(=O)OCc4ccc(C)cc4)c3C)C2)cc(OC)c1OC (stereo not drawn)	inactive: -2.26%	
COc1ccccc1-c1nnc(C2CCN(C(=O)c3cccc(Cl)c3)CC2)o1	inactive: -11.7%	
Cc1cccc(C(c2sc3nc(-c4ccco4)nn3c2O)N2CCN(Cc3ccccc3)CC2)c1 (stereo not drawn)	inactive: -4%	
CCOC(=O)c1ccccc1NC(=O)Cn1c(=O)n(CCC(=O)N2CCc3ccccc3C2)c(=O)c2ccccc21	inactive: -17.7%	
COc1cc(NC(=O)c2cc(Cl)ccc2Cl)ccc1NC(=O)c1cc2ccccc2o1	inactive: 15.2%	

From PubChem BioAssay AID493208 (National Center for Advancing Translational Sciences (NCATS), 2011)
